From article PMC4336329 (PLoS ONE, 2015)
Screen size: about 310,000 compounds; about 14,000 (4.5%) showed an effect of 50% or more. The effect is printed as a negative number. This is one part of the list.

target: human ether-à-go-go-related gene (hERG) potassium channel (human, UniProt Q12809); assay: primary screen, population patch clamp on CHO cells stably expressing hERG
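Also: peak tail current of the secondary pulse compared with the same well before compound.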

human ether-à-go-go-related gene (hERG) potassium channel, sequence (Q12809 whole entry, looked up): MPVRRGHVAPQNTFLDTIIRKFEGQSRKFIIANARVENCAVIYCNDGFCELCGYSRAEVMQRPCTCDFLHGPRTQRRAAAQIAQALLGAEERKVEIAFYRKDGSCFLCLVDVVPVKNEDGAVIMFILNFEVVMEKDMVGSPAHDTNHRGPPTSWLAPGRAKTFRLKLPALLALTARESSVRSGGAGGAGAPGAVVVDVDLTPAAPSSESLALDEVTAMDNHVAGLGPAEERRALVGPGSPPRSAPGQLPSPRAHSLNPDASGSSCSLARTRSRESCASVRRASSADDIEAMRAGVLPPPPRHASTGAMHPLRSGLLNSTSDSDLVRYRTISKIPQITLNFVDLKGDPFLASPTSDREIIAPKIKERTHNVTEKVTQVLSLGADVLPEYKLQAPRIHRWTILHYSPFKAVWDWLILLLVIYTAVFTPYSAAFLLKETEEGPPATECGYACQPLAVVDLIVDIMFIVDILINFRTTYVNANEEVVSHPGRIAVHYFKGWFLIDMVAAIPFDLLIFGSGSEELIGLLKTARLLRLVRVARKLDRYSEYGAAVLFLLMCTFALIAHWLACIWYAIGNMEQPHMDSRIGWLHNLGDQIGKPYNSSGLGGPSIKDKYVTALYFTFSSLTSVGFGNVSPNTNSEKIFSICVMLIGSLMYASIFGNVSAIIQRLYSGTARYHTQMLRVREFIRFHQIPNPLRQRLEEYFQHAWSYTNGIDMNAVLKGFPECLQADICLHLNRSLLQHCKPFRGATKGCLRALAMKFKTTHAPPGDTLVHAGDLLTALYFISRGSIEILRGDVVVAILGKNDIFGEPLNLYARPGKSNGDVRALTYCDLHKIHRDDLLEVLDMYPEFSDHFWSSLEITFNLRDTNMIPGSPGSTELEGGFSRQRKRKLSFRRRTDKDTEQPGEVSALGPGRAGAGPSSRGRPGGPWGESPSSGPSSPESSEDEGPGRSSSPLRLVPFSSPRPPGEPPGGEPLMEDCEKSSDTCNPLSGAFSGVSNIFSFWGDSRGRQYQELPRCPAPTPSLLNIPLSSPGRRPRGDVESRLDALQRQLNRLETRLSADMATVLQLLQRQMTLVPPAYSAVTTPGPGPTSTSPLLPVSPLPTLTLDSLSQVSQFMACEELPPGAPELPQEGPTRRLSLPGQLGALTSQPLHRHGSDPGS

Compound	hERG current change (%, negative = inhibition) at 10uM [%]
CCOC(=O)CSc1n[nH]c(NC(C)=O)n1	7.46
Cc1ccc2nc(Cl)c3cc(C(=O)NCCCN4CCCC4)sc3c2c1	-10.3
O=[N+]([O-])c1cc(-c2ccc(/C=N/c3nc4ccccn4c3-c3ccco3)o2)ccc1Cl	-22
CC(=O)N(c1ccc(N(C(C)=O)S(=O)(=O)c2ccccc2)cc1)S(=O)(=O)c1ccccc1	4.64
COc1ccc(N=Cc2c[nH][nH]c2=O)cc1	6.13
O=C(NNC(=O)c1ccccc1OCc1ccccc1)c1ccccc1O	15.2
O=C(Oc1ccc(/C=N/NC(=O)c2ccco2)cc1)c1ccccc1	-1.76
C[C@H](NC(=O)c1nc[nH]c1C(=O)N1CCc2ccccc2C1)c1ccccc1	6.35
Cc1ccc(N2C(=O)NC(=O)/C(=C\c3ccc(N4CCOCC4)cc3)C2=O)cc1	10.1
O=S(=O)(NCCO)c1cccc2cccnc12	7.62
CN(Cc1ccccc1)C(=O)CNC(=O)Cn1cnc2ccccc2c1=O	-7.88
CC(C)(C)C(=O)N1CCN(c2ccc(NC(=O)c3ccco3)cc2)CC1	4.67
CSc1nnc(C2CCN(CC(=O)Nc3ccccc3N3CCOCC3)CC2)n1C	-47.8
O=[N+]([O-])c1cc(/C=N\Nc2nc(-c3ccccc3)cs2)ccc1O	24.4
CC(=O)Nc1ccc(Nc2nc(-c3sc(NC(C)=O)nc3C)cs2)cc1	18.6
NS(=O)(=O)c1ccc(CCNC(=O)Cc2c[nH]c3ccccc23)cc1	9.33
COc1cc(NS(=O)(=O)c2ccc(NC(=O)c3ccco3)cc2)nc(OC)n1	5.11
O=C(OCC(=O)N1CCCc2ccccc21)c1cnc(Cl)c(Cl)c1	-42
CCOc1ccccc1NS(=O)(=O)c1c(C)noc1C	-7.77
CCCCNC(=O)c1nn2c(C(F)(F)F)cc(-c3ccccc3)nc2c1Br	16.4
Cc1cccc2cc(CN(Cc3ccco3)C(c3nnnn3CCc3ccccc3)C(C)C)c(=O)[nH]c12 (stereo not drawn)	13.2
Cc1cccc(NC(=S)NCCSc2ccc(Cl)cc2)c1	0.53
CN(CCCN1CCOCC1)C(=O)c1cc(COc2cccc(C(F)(F)F)c2)on1	-40.5
Cc1ccc(-c2nc(NC(=O)CSc3nnc(C)s3)ns2)cc1	-0.516
C[C@]12CCC3C(CC[C@H]4CC(O)CC[C@]34C)C1CC/C2=N/O (stereo partly drawn)	13.3
O=C(NCc1ccccc1)c1ccc(Cl)nc1	-22.9
COc1cc(OC)c(-c2nc3cnccc3n2C)cc1OC	6.5

Compound	hERG current change (%, negative = inhibition) at 10uM [%]
[O-]/C(=C(\C(=S)Nc1cccc2ccccc12)[n+]1ccccc1)c1cccs1	22.8
COc1ccc(-n2c(Cc3cccn3C)nnc2SCC(=O)Nc2ccccc2OC)cc1	-38.5
CCOc1ccc(CNC(=O)CCCn2nc(C)c3c(C)n(-c4ccc(C)cc4)nc3c2=O)cc1	-1.85
O=C(c1ccccc1)c1cnc[nH]1	-4.4
CCCCc1ccc(N/C(N)=N/c2nc(C)cc(C)n2)cc1	-70.1
COc1ccc(NC(=O)CSc2nc3ccsc3c(=O)n2Cc2ccccn2)c(OC)c1	-22.7
Clc1ccccc1-c1ncnc2ccc(Br)cc12	-15.7
Cc1cccc(C)c1NC(=O)CCS(=O)(=O)c1cccc2nsnc12	-4.59
COc1ccc2[nH]c(C)c(CCN(Cc3cccs3)C(=S)Nc3cccc(F)c3)c2c1	14.2
O=[N+]([O-])c1ccc(N2CCCCCC2)c2nonc12	-10
CC1CC(C)(C)NC(=S)N1CCCC(=O)NCc1ccccc1 (stereo not drawn)	15.2
CCc1ccc2[nH]c(C(=O)N(C)c3ccc(F)cc3F)cc2c1	20.9
Cc1ccccc1C(=O)N1CCN=C1SCc1ccc([N+](=O)[O-])cc1	-63.6
CN1C(=O)c2ccccc2C(C(=O)NCC2CCCO2)C1c1c[nH]c2ccccc12 (stereo not drawn)	5.25
O=C(Nc1ccc2nc3n(c(=O)c2c1)CCCC3)c1cc([N+](=O)[O-])ccc1F	-44.8
COc1ccc(-n2nnnc2/C(=C/N(C)C)C(=O)c2ccccc2)cc1	-4.92
COc1ccc(OC)c(S(=O)(=O)NCC(c2ccc(F)cc2)N2CCN(C)CC2)c1 (stereo not drawn)	-33.8
CCOC(=O)c1sc(NC(=O)CSc2nnc(Cc3ccccc3)o2)c(C#N)c1C	18
CCCC(=O)Oc1ccc(-c2nccc(C(OC)OC)n2)cc1	25.2
O=C(Nc1nc2ccccc2s1)C1CCN(S(=O)(=O)c2cc([N+](=O)[O-])ccc2Cl)CC1	10.4
Clc1ccc(-c2nnc3n2CCCS3)cc1	6.34
Cn1c(=O)[nH]c(=O)c2c1nc(CN1CCN(c3cccc(Cl)c3)CC1)n2CCN1CCOCC1	-35.9
O=C(Cc1csc(NC(=O)Nc2ccc(Cl)cc2)n1)NCc1cccnc1	-50.8
CC(=O)Nc1ccc(S(=O)(=O)Nc2nc3nc(-c4ccccc4)cc(-c4ccccc4)n3n2)cc1	18.7
CC1=C(C(=O)OCC2CCCO2)C(c2coc3ccc(C)cc3c2=O)C2=C(CCCC2=O)N1 (stereo not drawn)	-7.31
CS(=O)(=O)N(CC(=O)Nc1ccccc1-c1ccccc1)c1ccc(F)cc1	-12.3
Cc1c(NC(=O)c2ccc(C(=O)Nc3c(C)n(C)n(-c4ccccc4)c3=O)cc2)c(=O)n(-c2ccccc2)n1C	20.5
